In paper PMC3891740:
These are yes or no findings as the source states them, for the method shown. Binding seen in cells or lysates may run through a third protein. Some binding calls cover weakened binding; strength is not graded here. For some assays here: Tags and fused reporters may be left off the sequences shown. Values belong to the molecule of their own block, whether it stands above or below them.

What was measured:
[1] = molecular target: endogenous TMCC1 (human (endogenous in HEK293T and HeLa)) (UniProt O94876); assay: co-IP; HEK293T transfected with GFP-tagged TMCC1(571–653), TMCC2 or TMCC3; endogenous TMCC1 precipitated with the TMCC1 antibody on Protein A agarose (normal rabbit IgG as control); western blot for TMCC1 and GFP-tagged proteins
[2] = molecular target: FLAG-TMCC1(1–575) (human) (UniProt O94876); assay: co-IP; HEK293T co-transfected with GFP-TMCC1 and FLAG-tagged TMCC1 full length or fragments; lysates (10 mM Tris-HCl pH 7.4, 150 mM NaCl, 1 mM MgCl2, 1 mM EDTA, 1% Triton X-100) precipitated with anti-FLAG M2 agarose at 4°C; western blot
[3] = molecular target: FLAG-TMCC1(571–653) (human) (UniProt O94876); assay: as above
[4] = molecular target: FLAG-TMCC1 (FLAG-tagged full-length TMCC1) (human) (UniProt O94876); assay: as above
[5] = molecular target: FLAG-TMCC1(310–575) (human) (UniProt O94876); assay: as above
[6] = molecular target: FLAG-TMCC1(460–575) (human) (UniProt O94876); assay: as above

binding [1]: no binding
Molecule: GFP-TMCC1(571–653) (from UniProt O94876-1 571-653) (domain or fragment)

binding [2]: binds
binding [3]: no binding
binding [4]: binds
binding [5]: binds
binding [6]: binds
Molecule: GFP-TMCC1 (GFP-tagged full-length transmembrane and coiled-coil domain family 1) (from UniProt O94876-1 1-653)

binding [1]: binds
B1: GFP-TMCC3 (protein, UniProt Q9ULS5 1-477)
chain: MPGSDTALTVDRTYSYPGRHHRCKSRVERHDMNTLSLPLNIRRGGSDTNLNFDVPDGILDFHKVKLTADSLKQKILKVTEQIKIEQTSRDGNVAEYLKLVNNADKQQAGRIKQVFEKKNQKSAHSIAQLQKKLEQYHRKLREIEQNGASRSSKDISKDHLKDIHRSLKDAHVKSRTAPHCMESSKSGMPGVSLTPPVFVFNKSREFANLIRNKFGSADNIAHLKNSLEEFRPEASARAYGGSATIVNKPKYGSDDECSSGTSGSADSNGNQSFGAGGASTLDSQGKLAVILEELREIKDTQAQLAEDIEALKVQFKREYGFISQTLQEERYRYERLEDQLHDLTDLHQHETANLKQELASIEEKVAYQAYERSRDIQEALESCQTRISKLELHQQEQQALQTDTVNAKVLLGRCINVILAFMTVILVCVSTIAKFVSPMMKSRCHILGTFFAVTLLAIFCKNWDHILCAIERMIIPR

binding [1]: binds
B2: GFP-TMCC2 (protein, UniProt O75069-1 1-709)
chain: MKRCRSDELQQQQGEEDGAGLEDAASHLPGADLRPGETTGANSAGGPTSDAGAAAAPNPGPRSKPPDLKKIQQLSEGSMFGHGLKHLFHSRRRSREREHQTSQDSQQHQQQQGMSDHDSPDEKERSPEMHRVSYAMSLHDLPARPTAFNRVLQQIRSRPSIKRGASLHSSSGGGSSGSSSRRTKSSSLEPQRGSPHLLRKAPQDSSLAAILHQHQCRPRSSSTTDTALLLADGSNVYLLAEEAEGIGDKVDKGDLVALSLPAGHGDTDGPISLDVPDGAPDPQRTKAAIDHLHQKILKITEQIKIEQEARDDNVAEYLKLANNADKQQVSRIKQVFEKKNQKSAQTIAQLHKKLEHYRRRLKEIEQNGPSRQPKDVLRDMQQGLKDVGANVRAGISGFGGGVVEGVKGSLSGLSQATHTAVVSKPREFASLIRNKFGSADNIAHLKDPLEDGPPEEAARALSGSATLVSSPKYGSDDECSSASASSAGAGSNSGAGPGGALGSPKSNALYGAPGNLDALLEELREIKEGQSHLEDSMEDLKTQLQRDYTYMTQCLQEERYRYERLEEQLNDLTELHQNEMTNLKQELASMEEKVAYQSYERARDIQEAVESCLTRVTKLELQQQQQQVVQLEGVENANARALLGKFINVILALMAVLLVFVSTIANFITPLMKTRLRITSTTLLVLVLFLLWKHWDSLTYLLEHVLLPS
